# Source: the supplement of paper PMC8674133
# Positions count from the first letter of the chain named. Recombinant human monoclonal antibodies (heavy:light variable regions). ELISA EC50 on the named antigen, from 10 µg/ml down; IC50 / IC90 against spike pseudovirus on 293T-ACE2 cells, 48 h; lower = stronger. Calls: IC50 above 1,000 ng/ml = non-neutralizing; EC50 above 2,000 ng/ml = non-binder. The source prints 1000 for neutralization that was not reached; it is given as >1000 ng/ml. A few antibodies were first reported in earlier work of the same group.
# B1: C2002 (protein)
# chain 1: QVQLQQWGAGLLKPSETLSRTCAVYGGSFSGYYWSWIRQSPGKGLEWIGEINHRGSTNYNPSLKSRVTISVDTSKNQLSLELRSVTAADTAVYYCARSPGWTTVTRPFDYWGQGALVTVSS
# chain 2: EIVLTQSPGTLSLSPGERATLSCRASQSVSNSYLAWYQQKPGQAPRLLVLGASNRATGIPDRFSGSGSGTDFTLTISRLEPEDFAVFYCQQYSSSPVTFGQGTRLEIK
# B2: C2006 (protein)
# chain 1: EVQLVESGGGLIQPGGSLRLSCAASGFTVSSNYMSWVRQAPGKGLEWVSVIYSGGSTFYADSVKGRFTISRDNSKNTLYLQMNSLRAEDTAVYYCARELDTIFDYWGQGTLVTVSS
# chain 2: DIQLTQSPSFLSASVGDRVTITCRASQGISSYLAWYQQKPGKAPKLLIYAASTLQSGVPSRFSGSGSGTEFTLTISSLQPEDFATYYCQQLNSYPPYTFGQGTKLEIK
# B3: C2008 (protein)
# chain 1: EVQLVESGGGLVQPGRSLRLSCAASGFTFDDYAMHWVRQAPGKGLEWVSGISWNSGSIGYADSVKGRFTISRDNAKNSLYLQMNSLRAEDTALYYCAKDAGKGQWLVDLYFDYWGQGTLVTVSS
# chain 2: SYELTQPPSVSVAPGQTARITCGGNNIGSKSVHWYQQKPGQAPVLVVYDDSDRPSGIPERFSGSNSGNTATLTISRVEAGDEADYYCQVWDSSSDRGVFGGGTKLTVL
# B4: C2148 (protein)
# chain 1: EVQLVESGGGLIQPGGSLRLSCVASGFTVSSNYMSWVRQAPGKGLEWVSLIYSGGSTFYADSVKGRFTISRDNSKNTLYLQMNSLRAEDTAVYYCARDLSYYGMDVWGQGTTVTVSS
# chain 2: DIQLTQSPSFLSASVGDRVTITCRASQGISSYLAWYQQKPGKAPKLLIYAASTLQSGVPSRFSGSGSGTEFTLTISSLQPEDFATYYCQQLNSYLFTFGPGTKVDIK
# B5: C2153 (protein)
# chain 1: QVQLQQWGAGLLKPSETLSLTCAVFGGSFSDYYWSWIRQPPGKGLEWIGEISHSGTTNCKPSLKSRVTISVDTSKNQFSLRLNSVTAADTAVYYCARATMADIAVATPRRAFDVWGQGTMVTVSS
# chain 2: DIVMTQSPGSLAVSLGERATINCKSSQSVLYSSNNKNYLAWYQQKAGQPPKLLIYWASTRESGVPDRFSGSGSGTDFTLTISSLQAEDVAVYYCQQYYSTSITFGQGTRLEIK
# B6: C2033 (protein)
# chain 1: EVQLVESGGGLIQPGGSLRLSCAASGFTVSSNYMSWVRQAPGKGLEWVSLIYSGGSTYYADSVKGRFTISRDNSKNTLYLQMNSLRAEDTAVYYCARDLELKGAFDIWGQGTMVTVSS
# chain 2: B2 chain 2 with P95S, Y97W, L105V
# B7: C2035 (protein)
# chain 1: VQLVESGGGVVQPGRSLRLSCAASGFTFSSYGMHWVRQAPGKGLEWVAVISYDGSNKYYADSVKGRFTISRDNSKNTLYLQMNSLRAEDTAVYYCAKVGGPYCSGGSCYGGYFDYWGQGTLVTVSS
# chain 2: IRMTQSPSSLSASVGDRVTITCQASQDISNYLNWYQQKPGKAPKLLIYDASNLETGVPSRFSGSGSGTDFTFTISSLQPEDIATYYCQQYDNLPGFGPGTKVEIK
# B8: C2395 (protein)
# chain 1: EVQLVESGGGLIQPGGSLRLSCAASGFTVSINYMTWVRQAPGKGLEWVSVIYSGGSTYYADSVKGRFTISRDNSKNTLYLQMNSLRAEDTAVYYCARGYGDLYFDYWGQGTLVTVSS
# chain 2: DIQLTQSPSFLSASVGDRVTITCRASQGISSYLAWYQQKPGKAPKLLIYAASTLQSGVPSRFSGSGSGTEFTLTISSLQPEDFATYYCQHLRTFGQGTKVEIK
# B9: C2046 (protein)
# chain 1: B7 chain 1 with F28I, S30R, S51L, S104G
# chain 2: B7 chain 2 with E103D
# B10: C2037 (protein)
# chain 1: B6 chain 1 with S35N, L50V
# chain 2: B2 chain 2 with Y97W, F99L, L105V
# B11: C2038 (protein)
# chain 1: QVQLVQSGAEVKKPGASVKVSCKASGYTFTSYDINWVRQATGQGLEWMGWMNPNSGSTGYAQKFQGRVTMTRNTSISTAYMELSSLRSEDTAVYYCARVSDILTGYIDYWGQGTLVTVSS
# chain 2: B3 chain 2 with S31N, D95E, R96P, G97Y, G101T, L105V
# B12: C2042 (protein)
# chain 1: QVQLVQSRAEVKKPGSSVKVSCKASGGTISTYAISWVRQAPGQGLEWMGGIIPIFGTANYAQKFQGRVTITADESTSTAYMELSSLRSEDTAVYYCARNSREDGVWSGYYTSVYYGMDVWGQGTTVTVSS
# chain 2: QSALTQPASVSGSPGQSITISCTGTSSDVGSYNLVSWYQQHPGKVPKLMIYEGNKRPSGISNRFSGSKSGNTASLTISGLQAEDEADYYCCSYASSNTRVFGTGTKVTVL
# B13: C2043 (protein)
# chain 1: B2 chain 1 with G26E, S35N, F58Y, D100K, T101G, I102R
# chain 2: IRMTQSPSSLSASVGDRVTITCQASQDISNYLNWYQQKPGKAPKLLIYDASNLETGVPSRFSGSGSGTDFTFTISSLQPEDIATYYCQQYDNLSMYTFGQGTKLEIK
# B14: C2044 (protein)
# chain 1: B6 chain 1 with T28I, S31N, L101E, K102A, A104G, I107Y, M113L
# chain 2: B3 chain 2 with S29I, L45V, R96L, G97Y, G101T, L105V
# B15: C2045 (protein)
# chain 1: QVQLVQSGAEVKKPGASVKVSCKASGYTFTGYYLHWVRQAPGQGLEWMGWINPVSGGTNYAQHFQGRVTMTRDTSITTAYMELSRLRSDDTAVYYCARNYPPLLQQLGFMDVWGQGTTVTVSS
# chain 2: QSVLTQPPSVSAAPGQKVTISCSGSSSNIGNNYVSWYQQLPGTAPKLLIYESNRRPSGIPDRFSGSKSGTSATLGITGLQTGDEADYYCGTWASSLSADWVFGGGTKLTVL
# B16: C2049 (protein)
# chain 1: VQLVQSGAEVKKPGSSVKVSCKASGGTFSSYAISWVRQAPGQGLEWMGGIIPMFGTANYAQKFQGRVTITADESTSTASMELSSLRSEDTAVYYCARAGYCTSTVCSRLAPRGWLDPWGQGTLVTVSS
# chain 2: EIVLTQSPATLSLSPGERAILSCRASQSVSSYLAWYQQKPGQAPRLLIYDASNRATGIPARFSGSGSGTDFTLTISSLEPEDFAVYYCQQRSNWPPTFGQGTRLEIK
# How the values were obtained:
# [1] = target: SARS-CoV-2 Wuhan-Hu-1 spike pseudovirus; assay: pseudovirus neutralization IC50; higher = weaker neutralization
# Procedure: (§1)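 Single-round luciferase reporter pseudovirus mixed with antibody dilutions and put on 293T-ACE2 cells for 48 h; signal relative to no-antibody wells, four-parameter fit.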
# [2] = target: SARS-CoV-2 Wuhan-Hu-1 spike pseudovirus; assay: pseudovirus neutralization IC90; higher = weaker neutralization
# Procedure: as §1
# [3] = target: SARS-CoV-2 Wuhan-Hu-1 spike receptor-binding domain; assay: ELISA binding EC50; higher = weaker binding; ELISA of recombinant human antibody on coated antigen, from 10 µg/ml in fourfold dilutions; four-parameter fit.
Binder,pseudovirus neutralization IC50 [1] [µg/mL],pseudovirus neutralization IC90 [2] [µg/mL],ELISA binding EC50 [3] [µg/mL]
B1,> 1,> 1,0.0914
B2,0.0942,0.886,0.00327
B3,> 1,> 1,0.00364
B4,0.0335,0.451,0.00199
B5,> 1,> 1,> 10
B6,0.0237,0.18,0.00165
B7,> 1,> 1,0.00234
B8,0.0226,0.216,0.00205
B9,0.366,> 1,0.00167
B10,0.0557,0.39,0.00254
B11,0.51,> 1,0.00172
B12,> 1,> 1,0.00297
B13,0.0775,0.759,0.00239
B14,0.0105,0.074,0.00261
B15,0.0129,0.0737,0.000716
B16,0.00552,0.0669,0.00194
